# Source: PubChem BioAssay AID504332 (National Center for Advancing Translational Sciences (NCATS), 2011)
# Several values for one entry are separate records, joined by “and”; a condition that tells them apart may be missing. Identical values can stand only once. Hit rate of the full screen: of about 350,000 compounds, about 31,000 (8.9%) were called active. The shares of active, inactive and inconclusive entries below differ from those in the screen. Calls follow the shape of the dose curve; as a rule, active = well fitted inhibition curve with a large enough effect; inconclusive = small, poorly fitted or top-dose-only effect; inactive = no such curve, though single readings can be large or run the other way. A potency beside an inconclusive call is a rough fit, not a confirmed value.
# Molecular target: Histone-lysine N-methyltransferase EHMT2 (Homo sapiens) (UniProt Q96KQ7)
# Assay: qHTS Assay for Inhibitors of Histone Lysine Methyltransferase G9a; also: nearly all actives have a fitted effect of over 75% in size
# Conditions: G9a H3K9 monomethylation, AlphaScreen, 2 h; activity, negative = inhibition: at 59 µM (top of the series) unless noted
# Procedure, shortened: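 AlphaScreen read-out: biotin-H3K9 peptide (500 nM) methylation by 20 nM enzyme with 20 uM SAM, 2 h at room temperature after 15 min compound preincubation; anti-monomethyl H3K9 antibody plus donor/acceptor beads, 10 min dark.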
# % is scaled to controls: 0 for no effect and ±100 for the full control effect; potency is read from the fitted curve at half-maximal effect; tags tell the direction and shape of the fitted curve.
# Chain of UniProt Q96KQ7 (Q96KQ7 whole entry, looked up): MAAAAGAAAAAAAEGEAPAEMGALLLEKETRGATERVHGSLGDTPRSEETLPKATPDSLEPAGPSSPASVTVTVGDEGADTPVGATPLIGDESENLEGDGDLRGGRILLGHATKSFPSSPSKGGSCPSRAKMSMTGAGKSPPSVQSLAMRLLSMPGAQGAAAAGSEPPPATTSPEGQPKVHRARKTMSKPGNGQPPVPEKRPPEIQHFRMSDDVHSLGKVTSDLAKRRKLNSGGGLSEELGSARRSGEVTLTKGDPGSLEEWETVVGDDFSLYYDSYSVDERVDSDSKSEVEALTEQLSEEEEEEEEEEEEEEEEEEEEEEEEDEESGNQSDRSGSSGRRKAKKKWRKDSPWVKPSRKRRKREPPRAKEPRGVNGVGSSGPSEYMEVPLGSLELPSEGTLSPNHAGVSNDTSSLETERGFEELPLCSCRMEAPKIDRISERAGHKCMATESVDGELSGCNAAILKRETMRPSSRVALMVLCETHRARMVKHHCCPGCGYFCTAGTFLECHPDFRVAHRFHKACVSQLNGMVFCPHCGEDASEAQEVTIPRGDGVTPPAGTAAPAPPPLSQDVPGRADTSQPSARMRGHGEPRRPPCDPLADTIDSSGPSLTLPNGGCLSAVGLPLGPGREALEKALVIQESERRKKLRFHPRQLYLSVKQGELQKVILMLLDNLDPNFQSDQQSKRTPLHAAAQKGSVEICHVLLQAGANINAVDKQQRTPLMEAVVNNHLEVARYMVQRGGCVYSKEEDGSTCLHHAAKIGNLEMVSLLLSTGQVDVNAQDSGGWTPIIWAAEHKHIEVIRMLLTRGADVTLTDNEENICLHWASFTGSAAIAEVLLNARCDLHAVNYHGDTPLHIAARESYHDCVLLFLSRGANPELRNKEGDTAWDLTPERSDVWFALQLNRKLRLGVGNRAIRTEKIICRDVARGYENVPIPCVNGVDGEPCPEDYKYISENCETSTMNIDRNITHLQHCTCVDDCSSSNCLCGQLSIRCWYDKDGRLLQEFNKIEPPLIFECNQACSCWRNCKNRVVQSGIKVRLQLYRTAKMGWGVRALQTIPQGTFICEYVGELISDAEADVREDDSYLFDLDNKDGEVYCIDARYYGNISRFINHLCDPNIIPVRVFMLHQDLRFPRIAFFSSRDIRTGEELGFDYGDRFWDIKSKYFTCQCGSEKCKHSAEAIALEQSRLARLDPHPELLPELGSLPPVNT
SMILES,Potency,"activity, negative = inhibition"
CC(C)CC1CCCCC1OC(=O)C[N+]1(C)CCCCC1 (stereo not given),"inconclusive: 11.2 µM [inhibitor, partial curve, poor fit]",–
Cc1ccc(NC(=O)Cn2cc(C(=O)c3ccco3)c3ccccc32)cc1,"inconclusive: 11.2 µM [inhibitor, partial curve, poor fit]",–
COc1ccc(C(C#N)N2N=C(c3ccccc3)CC2c2ccccc2)cc1OC (stereo not given),"inconclusive: 25.1 µM [inhibitor, single point]",–
O=C(Nc1cc(-c2ccccc2)nn1-c1ccccc1F)c1ccc([N+](=O)[O-])cc1,–,inactive: -22.8% [at 12.7 µM]
O=C(COC(=O)C12CC3CC(CC(O)(C3)C1)C2)N1CCN(S(=O)(=O)c2ccc(Cl)cc2)CC1,"inconclusive: 31.6 µM [inhibitor, single point]",–
CCn1cc(C(=O)N2CCN(c3ccc(OC)cc3)CC2)c2cc(OC)c(OC)cc2c1=O,"inconclusive: 25.1 µM [inhibitor, single point] and inconclusive: 89.1 µM [inhibitor, partial curve, poor fit]",–
Cc1csc(NC(=O)c2cc[n+]([O-])cc2)n1,"inconclusive: 14.1 µM [inhibitor, partial curve, poor fit]",–
Cc1ccccc1/C=N/N1CCN(c2ccccc2)CC1,active: 28.2 µM,–
C/C(=N\Nc1cccc([N+](=O)[O-])c1)c1cc(F)ccc1O,"inconclusive: 3.55 µM [inhibitor, full curve, poor fit]",–
FC(F)(F)c1ccc2c(c1)N1CCCC1CN2 (stereo not given),active: 3.55 µM,–
C=CCn1c(NC(C)c2cc(Cl)ccc2O)nc2ccccc21 (stereo not given),"inconclusive: 89.1 µM [inhibitor, single point]",–
N#CC1=C(N)Oc2c(sc3ccccc23)C1c1ccco1 (stereo not given),active: 39.8 µM,–
CCc1ccccc1NC(=O)COc1ccc2oc(-c3ccc(OC)cc3)cc(=O)c2c1,"inconclusive: 0.891 µM [inhibitor, full curve, poor fit]",–
COc1ccc(C2CC(c3cccs3)=NN2C(=O)CSc2nc3c(cnn3-c3ccccc3)c(=O)[nH]2)cc1 (stereo not given),"inconclusive: 89.1 µM [inhibitor, single point]",–
O=C(CCCn1c(=S)[nH]c2cc3c(cc2c1=O)OCO3)N1CCN(c2ccccn2)CC1,–,inconclusive: -77.6% [inhibitor]
CCc1ccc(OCC(=O)O/N=C(\N)c2ccccn2)cc1,–,inconclusive: -81.2% [inhibitor]
CC1CCCC/C1=N\NC(=S)Nc1ccccc1 (stereo not given),active: 31.6 µM,–
CCOC(=O)C1CCCN(c2c(NCC3CCCN3CC)c(=O)c2=O)C1 (stereo not given),"inconclusive: 79.4 µM [inhibitor, single point]",–
CC(CC(=O)NCc1ccc(Cl)cc1)S(=O)(=O)c1ccc2c(c1)NC(=O)CO2 (stereo not given),"inconclusive: 89.1 µM [inhibitor, single point]",–
O=C(NC(=S)Nc1cccc(NC(=S)NC(=O)c2ccco2)n1)c1ccco1,"inconclusive: 89.1 µM [inhibitor, single point]",–
Cc1cccc(NC(=O)CSCC(=O)N(C)Cc2ccc(Cl)c(Cl)c2)c1,–,inactive: 28.8% [at 12.7 µM]
O=c1cc(-c2ccccc2)n2c(SCc3ccc(Br)cc3)nnc2[nH]1,"inconclusive: 1.58 µM [inhibitor, full curve, poor fit]",–

SMILES,Potency,"activity, negative = inhibition"
O=C(Nc1cccc(Cl)c1)Nc1nccs1,inactive,–
CC1(C)CC(=O)C(C(c2ccco2)C2C(=O)CC(C)(C)CC2=O)C(=O)C1,–,inconclusive: -121% [inhibitor]
COc1ccc(N(CC(=O)Nc2cc(OC)ccc2OC)S(=O)(=O)c2c(C)nn(C)c2C)cc1,"inconclusive: 89.1 µM [inhibitor, single point]",–
Cc1ccccc1N(CC(=O)NCCSCc1ccco1)S(C)(=O)=O,"inconclusive: 79.4 µM [inhibitor, partial curve]",–
Cc1ccc(S(=O)(=O)N2CCC(N3CCCCCC3)CC2)cc1,active: 10 µM,–
CCn1cc(C(=O)OCC(=O)Nc2c(C)cccc2C)c(=O)c2ccc(C)nc21,active: 44.7 µM,–
Oc1cccc(/C=C/c2ccc3cccc(O)c3n2)c1,inactive,–
CCOc1ccccc1NC(=O)CSC1=Nc2ccccc2C2=NC(CC(=O)NCc3ccc4c(c3)OCO4)C(=O)N12 (stereo not given),inactive,–
COc1cc(NC(=O)c2cc(S(=O)(=O)N3CCCCC3)ccc2N2CCOCC2)cc(OC)c1,"inconclusive: 39.8 µM [inhibitor, partial curve]",–
Cc1cc(Nc2ccccc2N2CCOCC2)n2ncnc2n1,"inconclusive: 89.1 µM [inhibitor, single point]",–
COc1cc(/C=C/C(=O)OCC(=O)NCC2CCCCC2)ccc1O,"inconclusive: 39.8 µM [inhibitor, single point]",–
CCn1cc(/C=C2/SC(=S)NC2=O)c(C)n1,"inconclusive: 31.6 µM [inhibitor, single point]",–
O=C1/C(=C/c2ccco2)SC(=S)N1CCC(=O)N1CCCCC1CCO (stereo not given),active: 44.7 µM,–
Cn1c2ccc(F)cc2c2ncn(Cc3ccccn3)c(=O)c21,"inconclusive: 56.2 µM [inhibitor, partial curve, poor fit]",–
O=C(Cc1ccccc1)Nc1nnc2n1CCS2,active: 10 µM,–
CCN(Cc1ccccc1)Cc1c(O)ccc2oc(C)c(C(=O)Nc3ccccc3C)c12,"inconclusive: 25.1 µM [inhibitor, partial curve, poor fit]",–
Cc1ccc(N2C(=O)CC(N(O)C3CC(=O)N(c4ccc(C)cc4)C3=O)C2=O)cc1 (stereo not given),–,inconclusive: -80.8% [inhibitor]
CC(=O)N1c2ccc(S(=O)(=O)N(C)CC(=O)N(Cc3ccccc3)C(C)C)cc2CC1C (stereo not given),inactive,–
OCCN(CCO)CC(O)COCCC12CC3CC(CC(C3)C1)C2 (stereo not given),"inconclusive: 0.631 µM [inhibitor, full curve, poor fit]",–
O=C(COc1cc2oc(=O)c3c(c2cc1Cl)CCC3)NCCN1CCOCC1,"inconclusive: 11.2 µM [inhibitor, partial curve, poor fit]",–
Cc1ccccc1CSCC(=O)NC(=O)NCc1ccco1,active: 44.7 µM,–
CCN(C(=O)Cc1ccccc1OC)c1nnc(-c2ccncc2)s1,"inconclusive: 39.8 µM [inhibitor, single point]",–

SMILES,Potency,"activity, negative = inhibition"
CC(C)(CNC(=O)CC1C(=O)NCCN1Cc1cccc(F)c1)N1CCOCC1 (stereo not given),"inconclusive: 70.8 µM [inhibitor, single point]",–
CC(=O)c1ccc(NC(=O)CS(=O)(=O)c2cn(CC(=O)N3CCOCC3)c3ccccc23)cc1,"inconclusive: 56.2 µM [inhibitor, partial curve, poor fit]",–
Cc1ccc(S(=O)(=O)NCC(c2ccc(N(C)C)cc2)N2CCc3ccccc32)cc1 (stereo not given),active: 11.2 µM,–
O=C1CC(N2CCC(c3nc4ccccc4o3)CC2)C(=O)N1c1ccc(F)cc1 (stereo not given),"inconclusive: 50.1 µM [inhibitor, partial curve, poor fit]",–
O=C(c1cc2sccc2n1Cc1ccccc1)N1CCc2ccccc21,"inconclusive: 89.1 µM [inhibitor, partial curve, poor fit]",–
Cn1cnc([N+](=O)[O-])c1Oc1ccc2ccccc2c1,active: 50.1 µM,–
Cc1c(C(=O)NN)sc(-c2ccccc2)c1C#N,inactive,–
Cc1ccc(Cl)c2c1=NC(=O)C=2c1[nH]c(=S)[nH]c1O,active: 7.94 µM,–
CC1(C)CC(=O)C(Sc2ccccc2[N+](=O)[O-])=C(O)C1,active: 50.1 µM,–
Cc1nonc1NC(=O)CSc1nnc(-c2ccoc2C)n1-c1cccc(Cl)c1,"inconclusive: 39.8 µM [inhibitor, single point]",–
CC(C)CN(C(=O)CCc1ccccc1Cl)c1c(N)n(Cc2ccccc2)c(=O)[nH]c1=O,"inconclusive: 79.4 µM [inhibitor, partial curve, poor fit]",–
CC1CCCC(C)N1C(=O)COC(=O)c1cc([N+](=O)[O-])ccc1N1CCOCC1 (stereo not given),"inconclusive: 31.6 µM [inhibitor, partial curve, poor fit]",–
C=CCOn1c(=O)c(-c2cc3ccccc3o2)[n+]([O-])c2ccccc21,"inconclusive: 70.8 µM [inhibitor, partial curve, poor fit]",–
COc1ccc(/C=C2\SC(=S)N(CCCC(=O)N3CCCCC3CCO)C2=O)cc1 (stereo not given),–,inactive: -4.13% [at 0.0925 µM]
COc1cccc(N(C(=O)Cn2nnc3ccccc32)C(C(=O)NCc2ccco2)c2cccnc2)c1 (stereo not given),"inconclusive: 79.4 µM [inhibitor, single point]",–
COc1ccc(NC(=O)Nc2cc(-c3cn4cccnc4n3)ccc2OC)cc1,"inconclusive: 39.8 µM [inhibitor, partial curve, poor fit]",–
CCN(CC)S(=O)(=O)c1cc(NC(=O)CN2C(=O)NC3(CCCc4ccccc43)C2=O)ccc1C (stereo not given),active: 50.1 µM,–
Cc1ccc(NCc2ccccc2O)cc1C,"inconclusive: 50.1 µM [inhibitor, partial curve, poor fit]",–
Cc1nn(C)cc1NC(=O)CCSc1nc(-c2ccco2)cc(C(F)(F)F)n1,–,inconclusive: -58.6% [inhibitor]
CN(C)CCCNC(=O)C(=O)Nc1cc2c3c(c1)CC(=O)N3CCC2,"inconclusive: 44.7 µM [inhibitor, partial curve, poor fit]",–
Cc1[nH]c2ccccc2c1C(=O)CSc1ncn[nH]1,"inconclusive: 25.1 µM [inhibitor, single point]",–
